From PubChem BioAssay AID743279 (National Center for Advancing Translational Sciences (NCATS), 2014)
Where “and” joins values, the source holds several entries; their conditions need not be identical. Identical values can stand only once. The whole screen tested about 360,000 compounds, of which about 17,000 (4.7%) were called active. This list was built around the results that the source calls inconclusive (neither active nor inactive); the mix of calls is not that of the screen. Cut-off read from the data, not from the text of the source: active = activity change below about -50%; inconclusive = mostly about -30% to -49%; inactive = weaker than that.

Experiment: qHTS for Inhibitors of Inflammasome Signaling: IL-1-beta AlphaLISA Primary Screen
Details: THP-1 LPS/ATP IL-1B secretion, 16 h; at 57.5 µM, stronger effect = lower value
How it was run: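 Secreted IL-1B measured by AlphaLISA bead assay after 16 h compound exposure of THP-1 cells; compounds (final up to 57.5 uM) added 1 h before LPS (250 ng/mL) and ATP (1.25 mM) stimulation; lower signal means less secretion.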
% is set by controls: 0 for no effect and ±100 for the full control effect.

Activity change, active:
Cc1cc2nc(NCCCO)n(CC(=O)c3cc(C(C)(C)C)c(O)c(C(C)(C)C)c3)c2cc1C -50.6%, O=C(OCC(=O)N1CCCC1)c1ccc(Cl)c([N+](=O)[O-])c1 -57.3%, CCN(CC)c1ccc(CNc2nc3ccccc3n2CCN2CCCCC2)cc1 -105%, CCCCNCc1nc2ccccc2c(=O)[nH]1 -52.3%, CCN1CCN(Cc2c(O)ccc3c2O/C(=C\C=C\c2ccccc2)C3=O)CC1 -100%, O=C(NCc1ccc2c(c1)OCO2)c1cc(-c2ccccn2)nc2ccccc12 -81.9%, Cc1cc(Cn2nc(C(=O)NCc3cccc(Br)c3)cc2-c2ccccc2)on1 -57.6%, CC(C)(C)c1[nH]nc2c1C(c1ccco1)C(C#N)=C(N)O2 (stereo unspecified) -66.5%, COCCCNC(=O)CSc1c2c(nc3ccc(Cl)cc13)CCCC2 -155%

Activity change, inactive:
Cc1ccccc1N1CC(C(=O)Nc2ccncc2)CC1=O (stereo unspecified) 12.2%, COc1cccc(/C=C/C(=O)Nc2cccc(C(C)=O)c2)c1OC -21.4%, NCCCC[C@H](N[C@@H](CCc1ccccc1)C(=O)O)C(=O)N1CCC[C@H]1C(=O)O 8.17% and 4.58%, COc1cc(NC(=O)c2cc(-c3ccc4c(c3)OCO4)on2)cc(OC)c1OC 19.5%, CC1CN(/C=C/C=O)C(C)CC1OC(=O)c1ccccc1 (stereo unspecified) -7.47%, COc1cc(/C=N/NC(=O)c2cccc3ccccc23)cc(OC)c1O 24.9%, O=S(=O)(Nc1cccnc1Cl)c1ccc(F)cc1 2.95%, Cc1ccc(-c2nnc(-c3ccccc3)c(-c3ccccc3)n2)cc1 -7.21%, CC1(NC(=O)c2cc(Cl)nc3ccccc23)CCS(=O)(=O)C1 (stereo unspecified) 13.1%, O=c1oc2ccccc2cc1-c1cn2ccccc2n1 26.9%, CC(=O)Nc1ccc(-c2ccnc3c2CC(C(=O)Nc2ccc(C(C)C)cc2)O3)cc1 (stereo unspecified) -23.3%, Cc1csc(SCC(=O)Nc2ccc(CC#N)cc2)n1 -21.3%, O=C(c1ccc(S(=O)(=O)N2CCCC2)cc1)N1CCN(c2ccccc2)CC1 7.52%, CCc1cccc(OCC2Cn3c(nc4c3c(=O)[nH]c(=O)n4C)O2)c1 (stereo unspecified) 46.6%, COc1cccc(C(C#N)NCCCNC(C#N)c2cccc(OC)c2OC)c1OC (stereo unspecified) -6.59%, C=CCc1cc(OC)ccc1OCCOCCC(C(=O)OCC)C(=O)OCC -1.59%, O=C(CC(CC(=O)c1ccccc1)c1ccccc1)c1ccccc1 -8.79%, Cc1c(C(c2ccc(N(C)C)cc2)c2c(C)n(C)n(-c3ccccc3)c2=O)c(=O)n(-c2ccccc2)n1C -7.19%, CCOC(=O)C(NC(=O)c1cccc(Cl)c1)(OCc1ccccc1)C(F)(F)F (stereo unspecified) -1.67%, COc1ccc2nc(SCC(=O)Nc3c(C)cc(C)cc3C)[nH]c2c1 15.5%, COc1cc(CNn2cn[nH]c2=S)cc(Cl)c1OCc1ccccc1 16.5%, CC(=O)Nc1ccc(NC(=O)c2ccc([N+](=O)[O-])cc2Cl)cc1 12.7%

Activity change, inconclusive:
CCn1cc(S(=O)(=O)CC(=O)Nc2ccc(OC)cc2)c2ccccc21 -36.9%, Cc1nnc(N2CCCC(C(=O)NCc3cccc(F)c3)C2)c2nn(-c3ccccc3)c(C)c12 (stereo unspecified) -48.4%, Cc1ccc(S(=O)(=O)Nc2nc(C)c(NC(=O)Nc3ccc(Cl)cc3Cl)s2)cc1 -36.5%, Nc1cc(C(F)(F)F)ccc1NCCc1ccccn1 -33.2%, Cc1ccc(NC(=O)COC(=O)c2ccco2)cc1S(=O)(=O)N1CCOCC1 -34.9%, OCC1CCCCN1CCNCc1cn[nH]c1-c1cccc2ccccc12 (stereo unspecified) -31.9%, O=C(Nc1ccc(F)cc1)N(Cc1cccs1)Cc1cc2cc3c(cc2[nH]c1=O)OCO3 -31.7%, COc1cc(NC(=O)c2ccc(Cl)cc2)c(OC)cc1NC(=O)CN1CCOCC1 -34.4%, COCCCNCCOc1ccc(C)cc1[N+](=O)[O-] -39.6%, CCc1ccc(NC(=O)c2cc(S(=O)(=O)N3CCc4ccccc43)cn2C)cc1 -36.5%, O=S(=O)(/C=C/c1ccccc1)N1CCN(c2nc(-c3cccnc3)nc3ccccc23)CC1 -31.4%, CC(C)c1ccc(CN2CCN(C(=O)CSc3nnnn3C3CC3)CC2)cc1 -32.9%, Cc1ccc(Cl)c(OCC(=O)N2CCc3ccccc3C2)c1 -49.3%, Cc1cccc(OCCC(=O)Nc2ccc(N3CCOCC3)cc2N2CCOCC2)c1 -33.9%, CC(=O)OCC(=O)C1(O)CCC2C3CCC4=CC(=O)C=CC4(C)C3(F)C(O)CC21C (stereo unspecified) -44.7%, O=C(O)CCCN1C(=O)/C(=C/C=C/c2ccco2)SC1=S -36.8%, CC(C)C(=O)c1cc2c(cc1NC(=O)c1ccccc1)OCCO2 -32.6%, CCOc1ccc(NC(=O)c2ccc(CC)s2)c([N+](=O)[O-])c1 -36.9%, COc1cc2cc(C(=O)N3CCOCC3)cc(-c3ccc(C)cc3)c2cc1OC -45.4%, CCOC(=O)c1sc2ncnc(N3CCN(C)CC3)c2c1C -39.7%, CCOc1ccc(Oc2cc(N)cc([N+](=O)[O-])c2)cc1 -37.9%, COc1ccccc1C(=O)NCCC(=O)Nc1nc2ccccc2[nH]1 -31.3%, O=C(CSc1ccc2ccccc2c1)NCc1cccs1 -34.8%, O=C(Nc1ccncc1)c1ccccc1[N+](=O)[O-] -32.5%, CCc1cccc(NC(=O)c2cc(S(=O)(=O)N3CCCCC3)ccc2N2CCOCC2)c1 -35.9%, Oc1cccc2ccc(N3CCOCC3)nc12 -43.5%, O=C(c1ccc(N2CCCC2)c([N+](=O)[O-])c1)N1CCc2ccccc2C1 -43%, CCc1ccccc1NC(=O)CN(c1ccc(OC)cc1OC)S(=O)(=O)c1ccccc1[N+](=O)[O-] -37.5%, COC(=O)C1=C(C)N(Cc2ccccc2)C(=NCCCCO)N[C@H]1c1cccc(C(F)(F)F)c1 -33%, Cc1ccc2nc(-c3ccccc3)cc(C(=O)NCCCn3ccnc3)c2c1 -49.9%, O=C(N/N=C\c1cccc(F)c1)c1ccc(Cn2cc(Br)c([N+](=O)[O-])n2)o1 -36.2%, COc1ccccc1Nc1nc(N)nc(CN2CCN(Cc3ccc4c(c3)OCO4)CC2)n1 -37.9%, CCCc1noc2c1/C(=N\O)CC(CC(C)SCC)C2 (stereo unspecified) -39.6%, COc1cc2c(cc1OC)-c1cc(NCc3ccccn3)nc(=O)n1CC2 -33.2%, FC(F)(F)c1cc(Oc2ccccc2)ncc1-c1nnc(-c2ccccc2Cl)o1 -31%, O=C(Cn1c2ccccc2c2nc3n(c(=O)c21)CCS3)N1CCCC1 -31.5%, Cc1ccc(OCc2nc3ccccc3[nH]2)cc1 -38%, CN1CCN(Cc2nc3ccccc3c(=O)n2Cc2nc(-c3ccccc3F)cs2)CC1 -34.5%, N#CC1CC(c2ccccc2)=NN1c1ccccc1[N+](=O)[O-] (stereo unspecified) -42.2%, CN1CCc2c(c3ccccc3n2C)C1 -31.7%, COC(=O)c1ccc(Cn2cc(Cl)cn2)cc1 -33.2%, CCC1Nc2ncnc(N3CCN(c4ccccn4)CC3)c2N(Cc2ccc(Br)cc2)C1=O (stereo unspecified) -47.9%, COC(=O)c1ccc(S(=O)(=O)N2CCCN(Cc3cccc(Br)c3F)CC2)n1C -44.1%, COc1ccc2c(c1)OC[C@H]1[C@H]2N2C(=O)CN(Cc3ccc(Cl)cc3)C(=O)[C@@]2(C)[C@H]1c1ccccc1 -42.8%, CCOC(=O)c1nnn(-c2ccc([N+](=O)[O-])cc2[N+](=O)[O-])c1C -44.5%, N#C/C(=C\c1c[nH]c2ccccc12)c1nnc2n1CCCCC2 -42.5%, Cc1c(C)c2c(OCC(=O)NC3CC3)cc3c(c2oc1=O)CCC(C)(C)O3 -36.3%, CN1CCN(CC(=O)Nc2sc3c(c2C(=O)Nc2ccccc2)CCCC3)CC1 -42.2%, CCc1ccc(NC(=O)CSCc2nc(N)nc(Nc3ccccc3CC)n2)cc1 -30.4%, O=C(c1cc(-c2ccco2)nc2ccccc12)N(Cc1nnc(-c2ccc(Cl)cc2)o1)C1CC1 -41.8%, C=CCc1cccc2cc(C(=O)NCc3cccnc3)c(=O)oc12 -34.7%, COc1cccc(NC(=O)CN(C)C(=O)c2cc(-c3ccccc3)nc3ccccc23)c1 -40.5%, CCCCn1c(NCc2ccccc2O)nc2ccccc21 -36.7%, CC(=O)c1ccc(NC(=S)Nc2ccc(Br)c(Cl)c2)cc1 -47.7%, CC(=O)C1=C(C)NC(SCC(=O)c2cc(Cl)ccc2Cl)=C(C#N)C1c1ccco1 (stereo unspecified) -42.5%
